Data on 31 molecules can be found in ChEMBL document CHEMBL1201862, “PubChem BioAssay data set” (2004).

The structures appear in SMILES notation.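 Assay format: 96-well plates, 48-hour exposure. The concentration for 50% growth inhibition is given as GI50.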 Activity calls are given as the source filed them. Cut-off read from the data, not from the text of the source: active = GI50 up to about 1.1 µM and inactive = higher.

The test system of the assay is NCI-H322M. Nature of the assay: NCI-60 cell line screen, 48 h.
Consider `O=C1OC(c2ccc(O)c(-c3ccccc3)c2)(c2ccc(O)c(-c3ccccc3)c2)c2c(Cl)c(Cl)c(Cl)c(Cl)c21`, for which the GI50 is inactive: > 100 µM.

In the case of `CCOC1OCCCC1Br` (stereo unspecified), the GI50 was inactive: > 100 µM.

As for `Cc1c(C(=O)Nc2ccc(Cl)c(C(F)(F)F)c2)oc2cc(O)ccc2/c1=N\NC(N)=S`, the GI50 is inactive: > 100 µM.

`C/C(=C\COP(=O)(O)OP(=O)(O)O)CC/C=C(\C)CNc1ccccc1`: the GI50 was inactive: 9.04 µM.

As to `Clc1cc(Cl)cc(/N=C/C=C/Nc2cc(Cl)cc(Cl)c2)c1`, the GI50 was inactive: 23.2 µM.

In the case of `O=C1C=C[C@@H](COC2OC(CO)C(O)C(O)C2O)O1` (stereo partly specified), the GI50 was inactive: 15.3 µM.

Consider `CS/C(C#N)=C(\C#N)SC`, for which the GI50 was inactive: 24.1 µM.

Turning to `COC1/C(=C\C(C)=O)c2ccccc2N1C(C)=O` (stereo unspecified), the GI50 is inactive: > 100 µM.

On to `COC(=O)[C@H](Cc1ccccc1)NC(=O)NCCN(CCNC(=O)N[C@@H](Cc1ccccc1)C(=O)OC)C(=O)N[C@@H](Cc1ccccc1)C(=O)OC`, for which the GI50 is inactive: 21.9 µM.

On to `COc1ccc(/C=N/Nc2nnc3c(n2)c2ccccc2c2nn(-c4ccccc4Cl)nc23)cc1`, for which the GI50 was inactive: > 100 µM.

Consider `CCOC(=O)c1oc2ccc(OC)c3c2c1CCC3`, for which the GI50 is inactive: > 100 µM.

Consider `NCC(=O)C(O)C(O)C(O)CO` (stereo unspecified), for which the GI50 was inactive: > 100 µM.

With `O=C(CCCN1CCC(Nc2ccc(F)cc2)(c2nnnn2C2CCCCC2)CC1)c1ccc(F)cc1`, the GI50 is inactive: 5.7 µM.

Consider `CSC(=S)Nc1cccc(C)n1`, for which the GI50 is inactive: > 100 µM.

In the case of `CCOP(=O)(OCC)C(C)(CC)NC(=O)C(C(F)(F)F)C(F)(F)F` (stereo unspecified), the GI50 is inactive: > 100 µM.

For the molecule `CCNC(=O)C1CCCN1C(=O)C(CCCN=C(N)N)NC(=O)C(CC(C)C)NC(=O)C(Cc1c[nH]c2ccccc12)NC(=O)C(Cc1ccc(O)cc1)NC(=O)C(CO)NC(=O)C(Cc1c[nH]c2ccccc12)NC(=O)C(Cc1c[nH]cn1)NC(=O)C1CCC(=O)N1` (stereo unspecified), the GI50 is inactive: > 100 µM.

Regarding `Cc1[nH]c2ncn3[nH]c(=S)nc3c2c1Cc1ccccc1`, the GI50 is inactive: > 100 µM.

Consider `O=C(COC(c1ccc(F)cc1)c1ccc(F)cc1)N1CCN(CCCc2ccccc2)CC1`, for which the GI50 is inactive: 4.36 µM.

Take `CCN1CCN(c2nc3ccccc3nc2C(=O)c2ccc(OC)cc2)CC1`: the GI50 is inactive: 40.9 µM.

On to `CC(=O)c1c(SCCN2CCCC2)n(-c2ccccc2)c(=S)n(-c2ccccc2)c1=O`, for which the GI50 is inactive: 21.5 µM.

For the molecule `CC(C)=CC(=O)Cc1nc2cc(C)c(C)cc2[nH]c1=O`, the GI50 was inactive: > 100 µM.

For `CCN(CC)CCCC(C)Nc1c(Sc2cnc3cc(Cl)ccc3c2NC(C)CCCN(CC)CC)cnc2cc(Cl)ccc12` (stereo unspecified), the GI50 was inactive: 2.35 µM.

On to `COC1=CC(=O)c2c(cc(COP(=O)(OCC3OC(n4cc(F)c(=O)[nH]c4=O)CC3O)N(C)CCCCCl)n2C)C1=O` (stereo unspecified), for which the GI50 was inactive: 3.7 µM.

As for `COc1cc2c(cc1OC)C1=Cc3cc(OC)c(OC)cc3C(C)N1C=C2` (stereo unspecified), the GI50 is inactive: 61.4 µM.

For the molecule `Cc1ccc(C)c2c1NC(=O)/C2=N\Nc1ccccc1[N+](=O)[O-]`, the GI50 is inactive: > 100 µM.

For the molecule `O=C(CCCCCCCCC(=O)N1C(=O)CC(=O)N(c2ccccc2)C1=S)N1C(=O)CC(=O)N(c2ccccc2)C1=S`, the GI50 was inactive: > 100 µM.

As for `COc1ccc2c(C(=O)O)cc3cc(OC)c(OC)cc3c2c1`, the GI50 is inactive: > 100 µM.

Regarding `CO/C=C(/C(=O)OC)c1ccccc1[C@@H]1CC1c1cccc(F)c1` (stereo partly specified), the GI50 was inactive: 37.2 µM.

Take `FC(F)(F)c1ccc2c(c1)nc(-c1ccccc1)n2CC1CCCN2CCCCC12` (stereo unspecified): the GI50 was inactive: 21.1 µM.

On to `Cc1c(C(=O)/C=C/c2ccccc2)[n+]([O-])c2ccccc2[n+]1[O-]`, for which the GI50 is inactive: 17.3 µM.

As for `CSCC[C@H]1C(=O)N=C(N)N1C(=O)OCc1ccccc1`, the GI50 is inactive: > 100 µM.
